53 compounds from ChEMBL document CHEMBL4888484, “Replenishing the malaria drug discovery pipeline: Screening and hit evaluation of the MMV Hit Generation Library 1 (HGL1) against asexual blood stage Plasmodium falciparum ,using a nano luciferase reporter read-out” (2022) can be followed below.

Structures are written as SMILES. Among all 150,000 compounds or so, about 540 (0.36%) showed an effect of 50% or more. This is one part of the list.

The subject of the experiment is Plasmodium falciparum. Kind of experiment: Primary screen in NF54 nanoGlo assay, in single point, at 2uM, 72h; a lower Z score goes with more inhibition. The format is functional, Erythrocyte. The settings on record: timepoint 72 hour.
For the compound `CCC(=O)N1CCCC(C(=O)N2CC3CCCC3C2)C1` (stereo unspecified), the “% Inhibition” value is reported as -2% and the Z score was 0.26.
In the same order, the values of `Cc1ccc2c(c1)C(C)(C)[C@@]1(/C=C/c3ccccc3)NC(=O)CCN21` are 10% and -1.34.
On the same counts, the results for `Cn1cc(-c2cc(-c3cnn(C)c3)n(Cc3cccc(Cl)c3)n2)cn1` are 6% and -0.73.
In the same order, the values of `CC(=O)N1CCN(CCc2ccccc2)[C@@H]2CS(=O)(=O)C[C@@H]21` are -8% and 0.98.
Take `CC(C)(C)c1cc(C[C@@H]2C[C@H](NS(=O)(=O)c3ccccc3)C2(C)C)no1`: the “% Inhibition” value is listed as -3% and the Z score amounted to 0.39.
In the same order, the values of `CCCNC(=O)[C@H]1c2ccccc2CC(=O)N1CCC` are 1% and -0.26.
On the same counts, the results for `COc1ccc(C(=O)C2CCN(c3ncc(C)s3)CC2)cc1` are -7% and 0.95.
On the same counts, the results for `Cc1ccccc1C(=O)NCCn1ccc(-c2cccs2)n1` are 0% and -0.09.
In the case of `Nc1nonc1-n1nncc1-c1ccc(Cl)s1`, the “% Inhibition” value was determined as 2% and the Z score is -0.28.
On the same counts, the results for `Cc1cc(C(=O)N2CCN(C[C@H](OCc3ccc(C#N)cc3)c3cccc(N4CCCC4)c3)CC2)n(C)n1` are -9% and 1.02.
In the same order, the values of `Cc1cc(C(=O)N[C@H](c2cccnc2)C2CCOCC2)n(C)n1` are -10% and 1.93.
On the same counts, the results for `CCOc1ccc(Cn2c(Oc3ccc(Cl)cc3C3CCCCC3)nc3c2c(=O)n(C)c(=O)n3C)cc1OCC` are -6% and 0.76.
For the compound `Cc1cc(C2CC2)nc(NS(=O)(=O)c2cccc3nsnc23)n1`, the “% Inhibition” value is given as -7% and the Z score amounted to 0.56.
In the case of `O=C(Cn1cnc(C2CC2)cc1=O)N1CCC(Oc2nncs2)CC1`, the “% Inhibition” value is -10% and the Z score amounted to 1.52.
Take `Cc1ccc([C@H](CNC(=O)Nc2ncn(C)n2)N2CCCC2)o1`: the “% Inhibition” value was 1% and the Z score was -0.16.
On to `CC1OCCC1NCc1ccnc(OCC(F)F)c1` (stereo unspecified), for which the “% Inhibition” value was -13% and the Z score came out at 1.65.
In the same order, the values of `CC(=O)N1C(c2ccccc2)c2[nH]c3ccccc3c2C[C@H]1C(=O)O` (stereo partly specified) are -16% and 2.1.
In the case of `CC(C)N(C)c1ccc(CN2CCN([C@@H](C)C(=O)NC3CCCC3)CC2)cn1`, the “% Inhibition” value is reported as -5% and the Z score amounted to 0.48.
On the same counts, the results for `c1ccc(Cc2ccc(Oc3ncnc4c3CCC4)cc2)cc1` are -15% and 1.79.
On the same counts, the results for `Cc1cc(CNC(=O)Nc2nc(C3CC3)ns2)cc(N)n1` are 0% and -0.04.
On the same counts, the results for `COCc1noc(CCc2c(C)[nH]c(=O)c(C#N)c2C)n1` are -1% and 0.07.
Take `O=C(NCc1cccc(Br)c1)c1ccc(Oc2nccnc2N2CCCCC2)cc1`: the “% Inhibition” value is listed as -8% and the Z score is 1.22.
In the same order, the values of `Cc1cccc(N(CC(C)(C)C)C(=O)COC[C@H]2CCCO2)n1` are -7% and 0.94.
In the same order, the values of `COCCN(Cc1c(C)nn(-c2cccc(F)c2)c1N1CCN(C)CC1)C(=O)CC(C)(C)C` are 8% and -0.98.
For `COc1ccc(C)cc1NC(=O)CNC(=O)c1sc(Cc2ccc(F)cc2)nc1C`, the “% Inhibition” value is reported as 3% and the Z score is listed as -0.31.
On the same counts, the results for `Cc1cccc(S(=O)(=O)N2CCc3nc(N4CCCC4)nc(N(C)C)c3C2)c1` are -7% and 0.73.
In the same order, the values of `CCc1c(C)nn(Cc2nc(CC(N)=O)n[nH]2)c1C` are 12% and -2.25.
In the same order, the values of `C=CCC[C@@H](CN(C)Cc1cccnc1)Oc1ncc(F)c(N(C)C)n1` are -8% and 1.44.
With `Cc1ccc(-c2csc3ncnc(N4CC([C@H](C)O)C4)c23)cc1`, the “% Inhibition” value is recorded as -2% and the Z score was found to be 0.46.
In the same order, the values of `CCC(C)NC(=O)C(NC(=O)c1cccc(C)c1)C1CCN(C(=O)C(C)C)CC1` (stereo unspecified) are 2% and -0.37.
In the same order, the values of `CCOC(=O)N1CCC2(CC1)N=C(c1ccc(Cl)cc1)C[C@@H](c1cccc(OCC)c1O)N2` are -19% and 2.12.
On the same counts, the results for `CCC1(CNc2nccc(N(C)C)n2)CCC1` are -16% and 1.74.
In the case of `COc1ccc(Cl)cc1-c1cc(C)c(C)[nH]c1=O`, the “% Inhibition” value came out at 6% and the Z score is listed as -0.9.
With `Cc1cc(=O)c2ccccc2n1CC(=O)N[C@@H](C)Cc1cnccn1`, the “% Inhibition” value is listed as -8% and the Z score was 1.43.
In the same order, the values of `Cc1cc(=O)[nH]c(-n2nc(C3CC3)cc2NC(=O)C(c2ccccc2)c2ccccc2)n1` are 86% and -11.5.
In the same order, the values of `Cc1cccc(CC(=O)N2CC[C@H]3N(C)S(=O)(=O)CC[C@]3(C(=O)N3CCCC3)C2)c1` are -4% and 0.53.
In the same order, the values of `CCOc1ccnc(OCC)c1Br` are -3% and 0.39.
`COc1ccc2cc(C(=O)N3CCC(CC(=O)N4CCCCC4)CC3)[nH]c2c1`: the “% Inhibition” value is -16% and the Z score is recorded as 1.45.
In the same order, the values of `COc1ccc(/C=C/CN(CCN(C)C)C[C@H]2CCCO2)cc1` are -17% and 2.33.
In the same order, the values of `COc1ccc(OC)c(-c2nn(-c3ccccc3)cc2C(=O)N(C)c2ccccc2)c1` are -3% and 0.39.
On the same counts, the results for `COc1cc(CN(C)S(=O)(=O)c2c(N)noc2C)sn1` are 2% and -0.48.
Regarding `CC(C)(C)N1Cc2cc(Cl)ccc2OCC1=O`, the “% Inhibition” value is reported as -2% and the Z score is on record as 0.19.
On the same counts, the results for `CC(C)(C)OC(=O)NCC1(C(=O)O)CCCC1` are -13% and 1.72.
On to `O=C1CC(C(=O)N2CCOc3cccc(Br)c3C2)=NN1`, for which the “% Inhibition” value is reported as -11% and the Z score was 2.13.
In the same order, the values of `COc1cccc(NC(=O)C2CCN(c3c(-n4c(C)ccc4C)c(C)nn3-c3ccccc3)CC2)c1` are 13% and -1.85.
For `CCCS(=O)(=O)N1CCC(CNC(=O)CCn2cccn2)CC1`, the “% Inhibition” value is listed as -23% and the Z score is given as 2.07.
In the same order, the values of `CCCN(Cc1ccccc1)Cc1nc2ccccc2o1` are -7% and 0.57.
On the same counts, the results for `CCOc1ccc(OCc2nc(C)n(CC)n2)cc1` are -9% and 1.26.
In the same order, the values of `CC(C)[C@@H](c1ccccc1Cl)N(C)C(=O)CN1CCCS1(=O)=O` are -7% and 0.74.
`Cc1[nH]c(CN2CCOc3ccc(CO)cc3C2)cc1C#N`: the “% Inhibition” value was -13% and the Z score is reported as 1.69.
In the same order, the values of `CN(C)S(=O)(=O)c1ccc2c(c1)CCN2S(=O)(=O)c1ccc2ccccc2c1` are -7% and 0.97.
In the same order, the values of `O=C(Nc1ccc(N2CCC(N3CCCCC3)CC2)cc1C(=O)O)c1ccccc1Cl` are 31% and -0.52.
For `c1cc(-c2nc3c(c(N[C@@H]4COC5(CCCCC5)C4)n2)CNC3)ccn1`, the “% Inhibition” value is listed as -12% and the Z score was determined as 2.1.

Usually % Inhibition stands for the drop in the measured response relative to a control, in per cent.
